Values joined by “and” are separate entries in the source; they are usually repeats but may differ in a detail not shown here. Identical values can stand only once. Hit rate of the full screen: of about 420,000 compounds, about 50,000 (12%) were called active. The shares of active, inactive and inconclusive entries below differ from those in the screen. Calls follow the shape of the dose curve; as a rule, active = well fitted inhibition curve with a large enough effect; inconclusive = small, poorly fitted or top-dose-only effect; inactive = flat fitted curve, though single readings scatter. Potencies of inconclusive entries are left out as doubtful fits.
Experiment: qHTS for Inhibitors of human tyrosyl-DNA phosphodiesterase 1 (TDP1): qHTS in cells in presence of CPT; also: nearly all actives have a fitted effect of over 55% in size
Conditions: chicken DT40 Tdp1-/-;hTDP1 cells + 20 nM CPT, ATP luminescence, 48 h; activity change, negative = growth inhibition: at 46.2 µM (top of the series)
In short: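 Chicken DT40 Tdp1-/- cells stably complemented with human TDP1 were seeded at 400 cells/well in medium containing 20 nM camptothecin, exposed to pin-transferred compounds, and grown at 37 °C for at least 48 hr. Viability was read as ATP luminescence.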
For `CC(C)Oc1ccc(C(=O)N(Cc2ccco2)Cc2cccs2)cc1`, the Potency was inconclusive [inhibitor, single point].
With `COc1ccccc1NC(=O)c1c(C)cc(C)nc1SCC(=O)c1ccc(Cl)cc1` the “activity change, negative = growth inhibition” value was inactive: -26.5%.
In the case of `COC(=O)c1c(NC(=O)CC2SCC(C(=O)OC)NC2=O)sc2c1CCCC2` (stereo unspecified), the “activity change, negative = growth inhibition” value is reported as inactive: -5.21%.
With `Oc1cc(O)cc(-c2cc3ccc(O)cc3o2)c1` the “activity change, negative = growth inhibition” value was inactive: -1.54%.
With `COc1ccccc1Nc1nc(N(C)c2ccccc2)nc(N)c1[N+](=O)[O-]` the “activity change, negative = growth inhibition” value was inactive: 2.15%.
With `OC(c1ccc(Cl)cc1)c1nccc2ccccc12` (stereo unspecified) the Potency was inconclusive [inhibitor, single point].
In the case of `Cc1cc(C)c(S(N)(=O)=O)c(C)c1N(C)S(=O)(=O)c1ccc(Cl)cc1`, the Potency is reported as inconclusive [inhibitor, single point].
For `CCOC(=O)c1c2c3c(cccc3n(C)c1=O)C(=O)c1ccccc1-2`, the Potency was inconclusive [inhibitor, single point].
With `COc1cccc(CN2C(=O)C3(C(C#N)=C(N)OC4=C3C(=O)CCC4)c3ccccc32)c1` (stereo unspecified) the Potency was active: 0.651 µM.
With `CCOC(=O)CN1CCC(c2cc(-c3ccc(Cl)cc3)n[nH]2)CC1` the Potency was inconclusive [inhibitor, single point].
For `Cc1sc(=NC(=O)c2ccco2)n(C)c1-c1ccc(Cl)cc1`, the Potency was active: 11.6 µM.
In the case of `COc1ccc(/C=N/Nc2ccc([N+](=O)[O-])cc2)cc1O`, the Potency is reported as inconclusive [inhibitor, single point].
For `COc1ccc(OC)c(Cc2nnc(CCC(=O)N3CCCCC3c3nccs3)o2)c1` (stereo unspecified), the “activity change, negative = growth inhibition” value was inactive: -19.6%.
For `COc1ccc(-c2cc3nc(C)c(CCC(=O)NC4CCCCC4)c(C)n3n2)c(OC)c1`, the Potency was inconclusive [inhibitor, single point].
For `Cc1cccc(NCc2ccc(Br)cc2)n1`, the Potency was inconclusive [inhibitor, partial curve].
For `Cc1cc(F)ccc1S(=O)(=O)Nc1ccc(C(=O)N2CCCCC2)cc1`, the Potency was inconclusive [inhibitor, single point].
With `CC(C)c1ccc2oc(-c3ccc(N)cc3)nc2c1` the Potency was inconclusive [inhibitor, partial curve].
In the case of `O=C(O)c1cc(N2CCCCC2)ccn1`, the “activity change, negative = growth inhibition” value is reported as inactive: -10.7%.
With `Cc1nnsc1C(=O)Nc1ccc(S(=O)(=O)N2CCCCC2C)cc1` (stereo unspecified) the Potency was inconclusive [inhibitor, single point].
In the case of `O=C(NC1CCCC1)c1cccc(Cl)c1`, the “activity change, negative = growth inhibition” value is reported as inactive: 14%.
For `COc1cc(C[C@H]2C(=O)OC[C@@H]2Cc2ccc(OC)c(OC)c2)ccc1O`, the Potency was active: 2.37 µM.
With `CCOc1ccc(S(=O)(=O)N2CCCC2)cc1` the “activity change, negative = growth inhibition” value was inactive: 2.31%.
In the case of `Cc1nnc(SCC(=O)NNC(=O)c2ccco2)s1`, the “activity change, negative = growth inhibition” value is reported as inactive: -15.8%.
With `CC(C)(C)c1ccc(OCCC(=O)NCCc2ccc(S(N)(=O)=O)cc2)cc1` the Potency was inconclusive [inhibitor, single point].
For `O=C(c1cccc(F)c1)N1CCN(C(=O)C(c2ccccc2)c2ccccc2)CC1`, the “activity change, negative = growth inhibition” value was inactive: -7.12%.
For `COc1ccc(NC(=O)CSc2nnc(C)n2Cc2ccccc2)cc1`, the “activity change, negative = growth inhibition” value was inactive: -2.23%.
For `O=C(COC(=O)CC12CC3CC(CC(C3)C1)C2)Nc1cccnc1Cl`, the activity change, negative = growth inhibition was inconclusive: -35.2% [inhibitor].
With `O=C(c1ccc(Cl)c(S(=O)(=O)N2CCOCC2)c1)N1CCc2ccccc2C1` the Potency was inconclusive [inhibitor, full curve, poor fit].
In the case of `Cc1cccc(C(=O)Nc2cccc(C(=O)NC3CCCC3)c2)c1`, the Potency is reported as inconclusive [inhibitor, single point].
For `O=C(c1csnn1)N1CCC2(CCN(Cc3cc(C(F)(F)F)cc(C(F)(F)F)c3)CC2)CC1`, the Potency was inconclusive [inhibitor, single point].
For `O=S(=O)(c1ccc(-c2ccccc2)cc1)N1CCCCC1`, the Potency was inconclusive [inhibitor, single point].
With `Cc1ccc2nc3n(c(=O)c2c1)CCC3` the “activity change, negative = growth inhibition” value was inactive: -18.1%.
In the case of `Cc1ccnc(Nc2nc(-c3ccc(Cl)cc3)cs2)c1`, the Potency is reported as inconclusive [inhibitor, partial curve].
For `CC1CCN(C(=O)Cn2c3ccccc3c3nc4n(c(=O)c32)CCS4)CC1`, the “activity change, negative = growth inhibition” value was inactive: -18.8%.
With `Cn1c(=O)[nH]c2cc(-c3noc(-c4ccc(C#N)cc4)n3)ccc21` the “activity change, negative = growth inhibition” value was inactive: -3.14%.
For `O=C(Nc1ccc(F)cc1)Nc1ccc(S(=O)(=O)N2CCCC2)cc1`, the Potency was inconclusive [inhibitor, single point].
For `Cc1cc(C)n(-c2nnc(Nc3ccc(C)c(Cl)c3)c3ccccc23)n1`, the Potency was inconclusive [inhibitor, single point].
In the case of `C=O`, the “activity change, negative = growth inhibition” value is reported as inactive: 10.9%.
For `COC(=O)c1ccc(CSc2ccc3nnc(-c4ccc(OC)c(OC)c4)n3n2)o1`, the Potency was inconclusive [inhibitor, single point].
For `COc1ccc(-c2ccc3nncn3c2)cn1`, the “activity change, negative = growth inhibition” value was inactive: 13.4%.
With `O=C(NCCO)c1nc(C(=O)c2ccccc2)c2ccccc2n1` the Potency was active: 23.1 µM.
With `c1ccc2c(c1)nc(N1CCCCCC1)c1ccccc12` the Potency was inconclusive [inhibitor, single point].
For `Cc1ccc(CC(=O)NCCCc2ccccc2)cc1`, the “activity change, negative = growth inhibition” value was inactive: -7.09%.
For `COc1cc(CNC(C)(C)CO)cc(Br)c1OCc1ccc(Cl)cc1`, the Potency was inconclusive [inhibitor, single point].
For `CC1(C(=O)NCc2cccc3ccccc23)CCN1Cc1ccc(OC(F)(F)F)cc1` (stereo unspecified), the Potency was inconclusive [inhibitor, single point].
For `Cc1ccc2c(c1)C(c1ccccc1)N(C(=O)Cc1ccc(F)cc1)CC(=O)N2` (stereo unspecified), the Potency was inconclusive [inhibitor, single point].
With `Cc1cc(Cl)ccc1OCCCC(=O)NCCN1C(=O)S/C(=C\c2cccnc2)C1=O` the Potency was inconclusive [inhibitor, single point].
In the case of `Cc1cc(C(=O)N[C@@H](c2ccccc2)[C@]2(C)C[C@H]2[C@@H](C)C(=O)Nc2ccc3ccccc3c2)no1`, the Potency is reported as inconclusive [inhibitor, single point].
For `CN(C)C(=O)c1c(NC(=O)c2ccccc2F)sc2c1CCCC2`, the Potency was inconclusive [inhibitor, single point].
For `COc1cccc(/C=N/Nc2ccc(S(=O)(=O)Nc3ccccc3C(=O)O)cc2[N+](=O)[O-])c1O`, the Potency was inconclusive [inhibitor, full curve, poor fit].
In the case of `COc1ccc(C2=NC(C)(C)N(CC(=O)Nc3cccc(C)c3)C2=O)cc1`, the Potency is reported as active: 4.61 µM.
For `COc1ccc(Cn2c(C(=O)O)c(CNCCc3cc(OC)ccc3OC)c3ccc(C)cc32)cc1`, the Potency was inconclusive [inhibitor, single point].
For `COc1ccc([C@H]2[C@H](C(=O)OC(C)(C)C)N3N=Cc4ccccc4C3C23C(=O)c2ccccc2C3=O)cc1OC` (stereo partly specified), the Potency was inconclusive [inhibitor, partial curve, poor fit].
With `CCc1cccc(C)c1N1C(=O)CN(Cc2ccccc2)C1=S` the “activity change, negative = growth inhibition” value was inactive: -2.8%.
For `CCOC(=O)c1cc(C)n(-c2ccc(OC)c(OC)c2)c1C`, the Potency was inconclusive [inhibitor, single point].
With `O=C(Nc1ccc(C#Cc2ccccc2)cc1)C1CC1` the activity change, negative = growth inhibition was inconclusive: -33.3% [inhibitor].
For `Cc1cccc([C@@H]2[C@@H]3C(=O)N(Cc4ccccc4)C(=O)[C@@H]3[C@]3(Cc4ccccc4)C(=O)N(c4cccc(Cl)c4)C(=O)N23)c1`, the “activity change, negative = growth inhibition” value was inactive: -2.05%.
In the case of `CC1Oc2ccccc2C=C1/C=N/NC(=O)c1ccccc1` (stereo unspecified), the Potency is reported as active: 9.2 µM.
With `COc1ccc(NC(=O)c2cc(C3CCCCN3S(=O)(=O)c3ccc(C#N)cc3)on2)c(C)c1` (stereo unspecified) the Potency was inconclusive [inhibitor, single point].
With `O=C(NN=Cc1ccc(OC(F)F)cc1)c1ccc(NS(=O)(=O)c2cccs2)cc1` the Potency was inconclusive [inhibitor, single point].
In the case of `O=C(Nc1cccnc1)c1cc(-c2ccccc2O)on1`, the activity change, negative = growth inhibition is reported as inconclusive: -37.1% [inhibitor].
With `CN(c1ccc(F)cc1)S(=O)(=O)c1ccc(Cl)c(C(=O)NCC2(N3CCOCC3)CCCCC2)c1` the Potency was active: 7.31 µM.
With `CC1=C(C(=O)Nc2ccc(Cl)cc2)C(CC(C)C)n2nc(SCc3ccccc3C)nc2N1` (stereo unspecified) the Potency was inconclusive [inhibitor, partial curve].
With `Cc1c(C#N)c(N=CN(C)C)c(C(=O)c2ccc(Br)cc2)n1-c1ccc(Cl)cc1` the Potency was active: 11.2 µM.
With `Cc1ccc(S(=O)(=O)Nc2nc3n(n2)C(c2ccc(F)cc2)C=C(c2ccccc2)N3)cc1` (stereo unspecified) the Potency was inconclusive [inhibitor, single point].
With `COc1ccc([C@H]2C[C@@H](n3cc(COC(=O)c4ccccc4)nn3)[C@H](O)CN2C(=O)C2CCCCC2)cc1` the “activity change, negative = growth inhibition” value was inactive: 4.46%.
In the case of `Nc1c(N2CCCC2)cc(Cl)c2nonc12`, the Potency is reported as inconclusive [inhibitor, partial curve].
In the case of `Nc1nc2ccc([N+](=O)[O-])cc2s1`, the Potency is reported as inconclusive [inhibitor, partial curve].
For `O=C(COc1ccc2ccccc2c1)NC1CC(=O)N(c2cccc(F)c2)C1` (stereo unspecified), the Potency was inconclusive [inhibitor, single point].
For `CCOC(=O)c1c(NC(=O)CSc2nnc(-c3ccc(C)cc3)o2)sc(C(C)=O)c1C`, the Potency was inconclusive [inhibitor, full curve].
In the case of `CCN1CCN(Cc2ccc(NC(=O)c3cc(NC(=O)c4cnnc5ccccc45)cc(OC)c3)cc2C(F)(F)F)CC1`, the Potency is reported as active: 13 µM and active: 8.2 µM.

Reference: PubChem BioAssay AID686979 (National Center for Advancing Translational Sciences (NCATS), 2013)
% is scaled to controls: 0 for no effect and ±100 for the full control effect; potency is read from the fitted curve at half-maximal effect; tags tell the direction and shape of the fitted curve.
